Residue numbers refer to the chain shown, from its start. The list shows a part of the results.
T1: RBFOX1 RRM RbFoxmut (Fox-RRM*) (Homo sapiens, UniProt Q9NWB1 109-208, R118D;E147R;N151S;E152T)
T1 sequence: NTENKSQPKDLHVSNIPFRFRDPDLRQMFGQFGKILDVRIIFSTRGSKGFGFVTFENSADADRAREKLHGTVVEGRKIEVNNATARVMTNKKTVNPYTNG

B1: AGAGGAC (DNA:RNA)
RNA: GGGAGACCGGAAUUCAGAUUGUCCAGAGGACUUAAAUCCCGUCGUAGCCACCA
DNA 1: CAATCTGAATTCCGGTCTCCC
DNA 2: TGGTGGCTACGACGGGATT
B2: CAACUGC (DNA:RNA)
RNA: B1 RNA with A25C, G26A, G28C, G29U, A30G
DNA 1: CAATCTGAATTCCGGTCTCCC
DNA 2: TGGTGGCTACGACGGGATT
B3: UGUCGCA (DNA:RNA)
RNA: B1 RNA with A25U, A27U, G28C, A30C, C31A
DNA 1: CAATCTGAATTCCGGTCTCCC
DNA 2: TGGTGGCTACGACGGGATT
B4: GUAUUAC (DNA:RNA)
RNA: B1 RNA with A25G, G26U, G28U, G29U
DNA 1: CAATCTGAATTCCGGTCTCCC
DNA 2: TGGTGGCTACGACGGGATT
B5: GAACACG (DNA:RNA)
RNA: B1 RNA with A25G, G26A, G28C, G29A, A30C, C31G
DNA 1: CAATCTGAATTCCGGTCTCCC
DNA 2: TGGTGGCTACGACGGGATT
B6: UGAAAAC (DNA:RNA)
RNA: B1 RNA with A25U, G28A, G29A
DNA 1: CAATCTGAATTCCGGTCTCCC
DNA 2: TGGTGGCTACGACGGGATT
B7: CUGAACG (DNA:RNA)
RNA: GGGAGACCGGAAUUCAGAUUGUCCCUGAACGUUAAAUCCCGUCGUAGCCACCA
DNA 1: CAATCTGAATTCCGGTCTCCC
DNA 2: TGGTGGCTACGACGGGATT
B8: UGCUGAG (DNA:RNA)
RNA: B1 RNA with A25U, A27C, G28U, C31G
DNA 1: CAATCTGAATTCCGGTCTCCC
DNA 2: TGGTGGCTACGACGGGATT
B9: AUCUUCA (DNA:RNA)
RNA: B7 RNA with C25A, G27C, A28U, A29U, G31A
DNA 1: CAATCTGAATTCCGGTCTCCC
DNA 2: TGGTGGCTACGACGGGATT
B10: UGAGCAU (DNA:RNA)
RNA: B1 RNA with A25U, G29C, C31U
DNA 1: CAATCTGAATTCCGGTCTCCC
DNA 2: TGGTGGCTACGACGGGATT
B11: CUUUGAA (DNA:RNA)
RNA: B1 RNA with A25C, G26U, A27U, G28U, C31A
DNA 1: CAATCTGAATTCCGGTCTCCC
DNA 2: TGGTGGCTACGACGGGATT
B12: CACAUAU (DNA:RNA)
RNA: B7 RNA with U26A, G27C, A29U, C30A, G31U
DNA 1: CAATCTGAATTCCGGTCTCCC
DNA 2: TGGTGGCTACGACGGGATT
B13: UCAGUGG (DNA:RNA)
RNA: B1 RNA with A25U, G26C, G29U, A30G, C31G
DNA 1: CAATCTGAATTCCGGTCTCCC
DNA 2: TGGTGGCTACGACGGGATT
B14: GCGUUAA (DNA:RNA)
RNA: B1 RNA with A25G, G26C, A27G, G28U, G29U, C31A
DNA 1: CAATCTGAATTCCGGTCTCCC
DNA 2: TGGTGGCTACGACGGGATT
B15: AUCUUGA (DNA:RNA)
RNA: B1 RNA with G26U, A27C, G28U, G29U, A30G, C31A
DNA 1: CAATCTGAATTCCGGTCTCCC
DNA 2: TGGTGGCTACGACGGGATT
B16: UAGGCAC (DNA:RNA)
RNA: B1 RNA with A25U, G26A, A27G, G29C
DNA 1: CAATCTGAATTCCGGTCTCCC
DNA 2: TGGTGGCTACGACGGGATT
B17: CAAGCCG (DNA:RNA)
RNA: B7 RNA with U26A, G27A, A28G, A29C
DNA 1: CAATCTGAATTCCGGTCTCCC
DNA 2: TGGTGGCTACGACGGGATT
B18: UUCUGGA (DNA:RNA)
RNA: B1 RNA with A25U, G26U, A27C, G28U, A30G, C31A
DNA 1: CAATCTGAATTCCGGTCTCCC
DNA 2: TGGTGGCTACGACGGGATT
B19: AGACUCA (DNA:RNA)
RNA: B1 RNA with G28C, G29U, A30C, C31A
DNA 1: CAATCTGAATTCCGGTCTCCC
DNA 2: TGGTGGCTACGACGGGATT
B20: AUGCUUU (DNA:RNA)
RNA: B7 RNA with C25A, A28C, A29U, C30U, G31U
DNA 1: CAATCTGAATTCCGGTCTCCC
DNA 2: TGGTGGCTACGACGGGATT
B21: CACGACU (DNA:RNA)
RNA: B7 RNA with U26A, G27C, A28G, G31U
DNA 1: CAATCTGAATTCCGGTCTCCC
DNA 2: TGGTGGCTACGACGGGATT
B22: CUCGUGC (DNA:RNA)
RNA: B1 RNA with A25C, G26U, A27C, G29U, A30G
DNA 1: CAATCTGAATTCCGGTCTCCC
DNA 2: TGGTGGCTACGACGGGATT
B23: CGAGAAU (DNA:RNA)
RNA: B1 RNA with A25C, G29A, C31U
DNA 1: CAATCTGAATTCCGGTCTCCC
DNA 2: TGGTGGCTACGACGGGATT
B24: ACAUGUA (DNA:RNA)
RNA: B1 RNA with G26C, G28U, A30U, C31A
DNA 1: CAATCTGAATTCCGGTCTCCC
DNA 2: TGGTGGCTACGACGGGATT
B25: CUACUGG (DNA:RNA)
RNA: B7 RNA with G27A, A28C, A29U, C30G
DNA 1: CAATCTGAATTCCGGTCTCCC
DNA 2: TGGTGGCTACGACGGGATT
B26: UGAACUC (DNA:RNA)
RNA: B1 RNA with A25U, G28A, G29C, A30U
DNA 1: CAATCTGAATTCCGGTCTCCC
DNA 2: TGGTGGCTACGACGGGATT
B27: UUAGAUA (DNA:RNA)
RNA: B1 RNA with A25U, G26U, G29A, A30U, C31A
DNA 1: CAATCTGAATTCCGGTCTCCC
DNA 2: TGGTGGCTACGACGGGATT
B28: GUAGUCU (DNA:RNA)
RNA: B1 RNA with A25G, G26U, G29U, A30C, C31U
DNA 1: CAATCTGAATTCCGGTCTCCC
DNA 2: TGGTGGCTACGACGGGATT
B29: UCUCUAC (DNA:RNA)
RNA: B1 RNA with A25U, G26C, A27U, G28C, G29U
DNA 1: CAATCTGAATTCCGGTCTCCC
DNA 2: TGGTGGCTACGACGGGATT
B30: CCGAUAA (DNA:RNA)
RNA: B7 RNA with U26C, A29U, C30A, G31A
DNA 1: CAATCTGAATTCCGGTCTCCC
DNA 2: TGGTGGCTACGACGGGATT
B31: UAAUCUU (DNA:RNA)
RNA: B1 RNA with A25U, G26A, G28U, G29C, A30U, C31U
DNA 1: CAATCTGAATTCCGGTCTCCC
DNA 2: TGGTGGCTACGACGGGATT

These binders were tested against T1, RBFOX1 RRM RbFoxmut (Fox-RRM*) (assay: EMSA; HiTS-Eq, 1 nM pool, 10 min; buffer printed only for the single-RNA assays: 10 mM Tris pH 7.5, 150 mM NaCl, 3.4 mM EDTA, 0.001% NP-40, 30 C). Conditions: tags: His6 N-terminal (pET28a); label: 5' 32P.
In short: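 Relative association constants, normalised to the cognate motif, were derived by comparing read counts of each RNA species with those of the control reaction. The RNA sequenced was the free fraction, separated by 8% native PAGE after a 10 min equilibration in 50 µL of 1 nM 5′-radiolabelled RNA (7 randomized nucleotides) with increasing concentrations of purified wild-type or mutant RbFox RRM.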

Binder	binding signal
B1	0.0764 KA relative to UGCAUGU
B2	0.0835 KA relative to UGCAUGU
B3	0.152 KA relative to UGCAUGU
B4	0.141 KA relative to UGCAUGU
B5	0.107 KA relative to UGCAUGU
B6	0.0648 KA relative to UGCAUGU
B7	0.33 KA relative to UGCAUGU
B8	0.102 KA relative to UGCAUGU
B9	0.124 KA relative to UGCAUGU
B10	0.114 KA relative to UGCAUGU
B11	0.0969 KA relative to UGCAUGU
B12	0.118 KA relative to UGCAUGU
B13	0.101 KA relative to UGCAUGU
B14	0.0941 KA relative to UGCAUGU
B15	0.15 KA relative to UGCAUGU
B16	0.081 KA relative to UGCAUGU

Binder	binding signal
B17	0.105 KA relative to UGCAUGU
B18	0.0449 KA relative to UGCAUGU
B19	0.102 KA relative to UGCAUGU
B20	0.0895 KA relative to UGCAUGU
B21	0.0872 KA relative to UGCAUGU
B22	0.155 KA relative to UGCAUGU
B23	0.0898 KA relative to UGCAUGU
B24	0.2 KA relative to UGCAUGU
B25	0.0791 KA relative to UGCAUGU
B26	0.0423 KA relative to UGCAUGU
B27	0.0995 KA relative to UGCAUGU
B28	0.0795 KA relative to UGCAUGU
B29	0.1 KA relative to UGCAUGU
B30	0.0612 KA relative to UGCAUGU
B31	0.0482 KA relative to UGCAUGU
